Columns and labels:
HUWE1^HECT = target: T1, HUWE1^HECT (Homo sapiens, UniProt Q7Z6Z7); assay: LC-MS/MS of ubiquitinated inhibitors from HUWE1^HECT-driven reactions (LysC digest); type: biochemical; design: key: The identification of the specified C-terminal Ub-derived peptides, resulting from LysC protease digestions with no or one missed cleavage site, respectively, is indicated by 'yes'; details: no missed cleavage, + ATP
T1 construct: the isolated HECT domain of HUWE1 (HUWE1^HECT); made in house
T1 sequence (Q7Z6Z7 4038-4374 limits assumed): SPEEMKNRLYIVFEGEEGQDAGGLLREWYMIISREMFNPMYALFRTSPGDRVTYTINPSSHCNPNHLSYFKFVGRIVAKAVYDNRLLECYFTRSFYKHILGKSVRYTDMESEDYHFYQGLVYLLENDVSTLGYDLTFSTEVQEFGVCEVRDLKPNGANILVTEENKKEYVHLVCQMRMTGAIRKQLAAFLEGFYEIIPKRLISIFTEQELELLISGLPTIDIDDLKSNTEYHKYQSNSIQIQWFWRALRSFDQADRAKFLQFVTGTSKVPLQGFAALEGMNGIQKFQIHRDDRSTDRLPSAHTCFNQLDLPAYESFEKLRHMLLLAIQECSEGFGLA
Description: LC/MS/MS of ubiquitinated inhibitors from reconstituted HUWE1^HECT-driven reactions: Proteins were separated by SDS-PAGE, followed by Coomassie staining, and the protein band of interest was cut out. Gel slices were reduced with 10 mM DTT at 56 °C for 55 min, alkylated with 55 mM chloroacetamide at 26 °C for 20 min, and digested with 0.2 μg LysC protease (Mass Spec Grade, Promega) at 37 °C overnight. The extracted peptides were dried in a speed-vac and then resuspended in 2% (v/v) ACN, 0.1% (v/v) FA, and analyzed on an Orbitrap Exploris 480 mass spectrometer, coupled to a Dionex U3000 nanoHPLC system (Thermo Fisher Scientific). Peptides were pre-concentrated and desalted on a trap column (PepMap, C18, 5 μm, 0.3 × 5 mm; Thermo Fisher Scientific) at 10 μL min^−1 in the above solvent, followed by the separation on a home-made capillary column (300 × 0.075 mm, ReproSil-Pur 120 C18-AQ, 1.9 μm; Dr Maisch GmbH), using a 58-min linear gradient from 10–45% of 0.08% (v/v) FA in 80% (v/v) ACN) versus 0.1% (v/v) FA at 300 nl min^−1. The mass spectrometer was operated in data-dependent acquisition (DDA) mode with a top-20 method, using higher-energy collisional dissociation (HCD) with an isolation width of 1.6 m/z and a collision energy setting of 28%. MS spectra across an m/z-range of 350–1600 were acquired at a resolution setting of 120,000 FWHM at m/z 200, and MS/MS spectra at a resolution setting of 30,000. Normalized AGC target (%) and maximum injection time (IT) for MS and MS/MS were set to 100 in 60 ms and 100 in 120 ms, respectively. Fixed first mass and dynamic exclusion values were set to 100 m/z and 9 s, respectively. Raw files were processed using MaxQuant v.2.0.3.0 (Max Planck Institute of Biochemistry)[56]. MS/MS spectra were searched against a UniProtKB human database containing 20422 protein entries (March 2023), supplemented with the human Ub sequence via the Andromeda search engine. Precursor and fragment ion mass tolerances were set to 6 and 20 ppm, respectively. […]

HUWE1^FL = target: T2, HUWE1^FL (Homo sapiens, UniProt Q7Z6Z7); assay: Targeted MS/MS of ubiquitinated inhibitors from HUWE1^FL-driven reactions (trypsin digest); type: biochemical; design: key: 'yes' indicates detection of compound-modified tryptic C-terminal ubiquitin peptides characteristic of the conjugated products listed in the left column; details: HUWE1^FL-driven reaction; + ATP
T2 construct: made in house; host or cells: HEK293T (transient transfection, anti-Flag purification, SEC)
Description: Samples for LC/MS/MS analyses of the ubiquitinated inhibitors from reconstituted HUWE1^FL-driven reactions were prepared by in-solution trypsin (Mass Spec Grade, Promega) digestion, instead of the gel-based LysC digestion procedure described above. […] In both cases, the samples were reduced and alkylated with 10 mM TCEP and 20 mM iodoacetamide at 37 °C in the dark for 60 min. An equal mixture of Sera-Mag SpeedBeads with hydrophilic and hydrophobic surfaces (GE Healthcare; 1:1 mix (v/v)) was washed twice with water and added to the sample at 50:1(w/w) resin-to-protein ratio. After adding ACN to a final percentage of 70% (v/v) and removing the supernatant, the resin was washed 3 x with 90% (v/v) ACN, resuspended in 50 mM triethylammonium bicarbonate (TEAB), containing sequencing-grade modified trypsin (1:25 (w/w) enzyme-to-protein ratio), and incubated at 37 °C, shaking at 1,000 rpm overnight. The resulting peptides were then dried, dissolved in 5% ACN/0.1% FA (both v/v), and measured on a hybrid quadruple-Obitrap Exploris480 mass spectrometer (Thermo Fisher Scientific) coupled to an Ultimate 3000 UHPLC system (Thermo Fisher Scientific). To this end, peptides were pre-concentrated and desalted on a trap column (PepMap, C18, 5 μm, 0.3 × 5 mm; Thermo Fisher Scientific) at 10 μL min^−1 in loading buffer (2% (v/v) ACN, 0.1% FA), followed by the separation on a self-made capillary column (ReproSil-Pur 120 C18-AQ, 1.9 μm, 300 × 0.075 mm; Dr Maisch GmbH), using a 63-min linear gradient from 10–38% of 0.08% (v/v) FA in 80% ACN/0.1% FA (both v/v) at 300 nl min^−1. Two MS measurements were performed, including full MS and targeted MS/MS scans (Full MS/tMS2). Full MS settings: detector type: Orbitrap; resolution: 120,000; m/z-range: 150–1300; RF lens (%)−50; AGC target: standard, maximum IT (ms): auto, data type: profile. tMS2 settings: isolation window (m/z): 1.4; activation type: HCD; HCD collision energy (%): 28; detector type: Orbitrap; Orbitrap resolution: 15,000; AGC target: standard; maximum IT (ms): 54; data type: profile. […]

Structure (SMILES)	Identification of compound-modified C-terminal Ub peptide ESTLHLVLRLRGG-compound (HUWE1^HECT)	Detection of compound-Ub conjugate (compound-modified tryptic C-terminal ubiquitin peptides) (HUWE1^FL)
Cc1c(C(=O)Nc2ccc(CN)cc2)ncnc1N1CCC(C#N)(c2ccccc2)CC1 [BI8622]	yes	yes
NCc1cccc(CNc2ncnc3c(N4CCN(Cc5ccccc5)CC4)ncnc23)c1 [BI8626]	yes	yes
NCc1ccc(CNc2ncnc3c(N4CCN(Cc5ccccc5)CC4)ncnc23)cc1 [derivative 1, N-(4-(aminomethyl)benzyl)−8-(4-benzylpiperazin-1-yl)pyrimido[5,4-d]pyrimidin-4-amine]	yes	yes

Source: PMC12405493, “Selective ubiquitination of drug-like small molecules by the ubiquitin ligase HUWE1” (Nature Communications, 2025)
